# Data as given in PMC6919601, “Identification of Plasmodium dipeptidyl aminopeptidase allosteric inhibitors by high throughput screening” (PLoS ONE, 2019).
# Hit rate of the full screen: of about 110,000 compounds, about 230 (0.21%) showed an effect of 50% or more. The list shows a part of the results.
# Target: DPAP1 (Plasmodium falciparum, UniProt Q8IIJ9)
# Experiment: primary screen, percent inhibition; read by cleavage of a fluorogenic dipeptide substrate; higher = more effect of the substance
# Design: species or system P. falciparum D10 trophozoite lysates; single well
# 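Note: 30 min substrate incubation versus DMSO and 10 µM JCP410 controls.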
# DPAP1, sequence (Q8IIJ9 whole entry, looked up): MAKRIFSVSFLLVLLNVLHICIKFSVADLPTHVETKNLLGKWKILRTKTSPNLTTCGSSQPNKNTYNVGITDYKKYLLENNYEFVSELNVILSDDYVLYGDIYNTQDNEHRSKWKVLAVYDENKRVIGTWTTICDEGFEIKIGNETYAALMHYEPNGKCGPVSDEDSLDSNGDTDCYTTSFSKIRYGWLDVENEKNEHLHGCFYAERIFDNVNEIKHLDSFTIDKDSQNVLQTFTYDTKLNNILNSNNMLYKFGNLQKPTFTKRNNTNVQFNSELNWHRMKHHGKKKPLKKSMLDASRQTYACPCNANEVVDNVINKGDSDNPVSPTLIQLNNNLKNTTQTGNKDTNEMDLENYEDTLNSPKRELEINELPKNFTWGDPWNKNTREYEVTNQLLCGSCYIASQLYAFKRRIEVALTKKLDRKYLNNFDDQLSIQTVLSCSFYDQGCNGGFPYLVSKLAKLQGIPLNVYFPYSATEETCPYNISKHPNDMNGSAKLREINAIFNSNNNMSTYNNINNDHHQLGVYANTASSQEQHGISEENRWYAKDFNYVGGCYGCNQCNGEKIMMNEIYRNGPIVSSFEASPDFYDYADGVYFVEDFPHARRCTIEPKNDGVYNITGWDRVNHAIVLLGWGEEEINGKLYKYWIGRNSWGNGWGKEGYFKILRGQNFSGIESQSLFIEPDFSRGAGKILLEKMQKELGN
row,Compound,% Inhibition @ 10 uM [%]
1,CCOc1ccc2nc(N3CCC(C(=O)N4CCC(C(N)=O)CC4)CC3)sc2c1,0.137
2,CCCCCCNC(=O)c1c(OC)cccc1OC,1.35
3,CCN1CCN(Cc2ccc(-c3ccccc3Cl)o2)CC1,-5.31
4,Cc1ccc(-n2nnc3c(=O)n(Cc4ccccc4Cl)cnc32)cc1,-0.431
5,O=c1[nH]ccn(Cc2ccc(Cl)cc2)c1=O,-4.58
6,Cc1ccccc1C(=O)Nc1ccc(CN2CCOCC2)cc1,3.53
7,CC1CC(=O)C(C(C)C)N(C)C1 (centres unmarked),0.266
8,CN(CCO)S(=O)(=O)c1ccccc1[N+](=O)[O-],-0.687
9,CCOc1cc(CN2CCC(O)CC2)ccc1OC,-0.127
10,CCC(NC(=O)Nc1ccccc1OC)(C(F)(F)F)C(F)(F)F,2.6
11,CCOC(=O)C1=C(CS(=O)(=O)c2ccc(Cl)cc2)NC(=O)NC1c1ccc(OC)c(OC)c1 (centres unmarked),-3.94
12,CC1(C)CC(=O)C2=C(C1)OC(N)=C(C#N)C21C(=O)N(CN2CCOCC2)c2ccccc21 (centres unmarked),1.37
13,CCNc1nc(-c2ccc(C3CCCCC3)cc2)cs1,-3.28
14,C(=C\CSc1nnnn1-c1ccccc1)/CSc1nnnn1-c1ccccc1,-1.06
15,COc1ccccc1-c1c(C)c(CC(C)C)nc(N)c1C#N,0.5
16,O=C1C(S(=O)c2ccc(Cl)cc2)=C(O)c2cccc3cccc1c23 (centres unmarked),77.5
17,OC1CCCc2c1[nH]c1ccc(C(F)(F)F)cc21 (centres unmarked),-0.357
18,Cc1ccc(C(=O)CC(=O)c2ccc(Cl)cc2)c(O)c1,-2.41
19,O=C(Cn1c(=O)sc2cccc(Cl)c21)OCCF,0.273
20,CC1CCN(S(=O)(=O)c2ccc3c(ccn3CC(=O)NCc3ccccc3)c2)CC1,4.64
21,CCN1C(=O)/C(=C\c2ccccc2OC)S/C1=N/c1ccccc1,-1.37
22,CCCCCc1ccc(-c2ccc(C(=O)O)cc2)nc1,3.22

row,Compound,% Inhibition @ 10 uM [%]
1,C=CCn1c(SCC(=O)Nc2ccccc2OC)nc2scc(-c3ccc(C)o3)c2c1=O,-4.76
2,CS(=O)(=O)N(CC(=O)N1CCN(Cc2ccc3c(c2)OCO3)CC1)c1cccc(F)c1,-1.27
3,C=CCNC(=O)NC(=O)C12CC3CC(CC(C3)C1)C2,-2.62
4,CC(NC(=O)c1ccccn1)c1ccccc1 (centres unmarked),-0.744
5,Cn1c(=O)c2c(n(C)c1=O)=NC1(CCCCC1)N=2,-6.22
6,COc1cc(C2C3=C(O)CCCC3=Nc3nc(-c4ccc(O)cc4)nn32)cc(OC)c1OC (centres unmarked),3.59
7,O=C1NC(=O)C(=Cc2ccc(SC3CCCCC3)o2)C(=O)N1,0.458
8,CC(C)CC(NC(=O)OCc1ccccc1)C(=O)NC(CCc1ccccc1)C(=O)c1cc2ccccc2o1 (centres unmarked),-3.97
9,O=C(CSc1nnc(-c2ccncc2)n1Cc1ccco1)c1c[nH]c2ccccc12,5.01
10,O=C(NCc1ccc(Cl)cc1Cl)C(=O)NC1CCCC1,1.57
11,Cc1ccc(C2C3=C(O)CCCC3=Nc3[nH]nc(-c4ccccc4)c32)cc1 (centres unmarked),-0.238
12,CCN1CCN(Cc2ccc(C(C)C)cc2)CC1,0.847
13,CSc1ccc(/C=C/C(=O)c2c(O)cc(C)oc2=O)cc1,-3.79
14,CCOc1ccc(N2C(=O)CC(N3CCSCC3)C2=O)cc1 (centres unmarked),-8.72
15,CCC(=O)c1c(OCC(N)=O)ccc2c(C)cc(=O)oc12,-0.958
16,Cc1ccc(C(=O)c2oc3ccccc3c2NC(=O)C2COc3ccccc3O2)cc1 (centres unmarked),-1.11
17,Cc1ccc(OCCCN2CCCCC2)cc1C,4.6
18,O=C(O)Cc1ccc(NC(=O)c2ccc3c(c2)C(=O)N(Cc2ccco2)C3=O)cc1,3.53
19,COc1cccc(-c2[nH]c3c(C#N)cnn3c2NC2CCCCCC2)c1,3.84
20,Cc1ccc(C)c(OCC(=O)Nc2ccc(S(=O)(=O)Nc3nccs3)cc2)c1,5.69
21,NC(=O)C1CCN(Cc2ccc(F)cc2)CC1,4.36
22,O=C(O)c1cccc(N2C(=O)C3C(C2=O)C2C=CC3C23CC3)c1 (centres unmarked),3.53

row,Compound,% Inhibition @ 10 uM [%]
1,COc1cccc(CNC(=O)Cc2c(C)c3cc4c(C)coc4c(C)c3oc2=O)c1,0.895
2,CCOC(=O)c1ccc(Oc2nc(N3CCCCC3)nc(N3CCCCC3)n2)cc1,0.401
3,CCCOc1ccc(C2CC(=O)N3C(=C2C#N)SCC3(O)c2ccc(Cl)cc2)cc1OC (centres unmarked),-0.0235
4,COc1ccc(/C=C2/C(=N)N3C(=NC2=O)SN=C3S(C)(=O)=O)cc1OC,-1.58
5,COc1ccc2c(c1)N(C)C(=O)C2(c1ccccc1)c1ccccc1,8.19
6,CC(NC(=O)c1cnn2c(C(F)(F)F)cc(-c3cccs3)nc12)c1ccccc1 (centres unmarked),-2.26
7,CCS(=O)(=O)n1nc(-c2ccc(OC)cc2)nc1SCc1ccccc1,4.08
8,Cc1cccc(C(=O)N2N=C(c3ccncc3)CC2(O)C(F)(F)F)c1 (centres unmarked),2.06
9,O=S1(=O)N=C(N(CCO)c2ccc(Cl)cc2)c2ccccc21,1.68
10,NS(=O)(=O)c1ccc(NC(=O)C23CC4CC(CC(C4)C2)C3)cc1,9.77
11,O=S1(=O)N=C(Nc2ccc(Br)cc2)c2ccccc21,-2.42
12,Cc1ccc(S(=O)(=O)NCc2ccc(C(=O)NC3CCC(C)CC3)cc2)cc1 (centres unmarked),-3.35
13,COc1ccc(CC(=O)Nc2ccc(Cl)cc2)cc1,1.27
14,COc1ccccc1N1C(=O)c2ccccc2C1=O,-3.98
15,COc1ccccc1CN1CCN(Cc2ccc(Cl)cc2)CC1,-2.32
16,Cc1ccc(Nc2nc(-c3ccc(-c4ccccc4)cc3)cs2)cc1Cl,-4.31
17,Cc1nc2ncnn2c(C)c1CCC(=O)NC(C)c1ccccc1 (centres unmarked),-0.465
18,N#Cc1nc(COc2ccccc2)oc1NCCc1ccccc1,1.43
19,Cc1onc(-c2c(Cl)cccc2Cl)c1C(=O)NC(C)(C)C,-4.74
20,COc1ccc(NC(=O)CN(c2ccccc2)S(=O)(=O)c2ccc(OC)cc2)cc1,2.08
21,COc1ccc(C)cc1N(CC(=O)Nc1ccc(S(=O)(=O)N2CCCCC2)cc1)S(C)(=O)=O,3.84
